From PubChem BioAssay AID2147 (National Center for Advancing Translational Sciences (NCATS), 2009)
The campaign covered roughly 230,000 compounds. About 3,600 (1.6%) were called active. The inconclusive results got no clear call from the source; some entries with a clear call stand among them for comparison. Calls come from the whole dose curve; as a rule, active = well fitted inhibition curve with a large enough effect (not every such curve was filed as active); inconclusive = small, poorly fitted or top-dose-only effect, or another doubt; inactive = no such curve, though single readings can be large or run the other way. Potencies of inconclusive entries are doubtful fits and often do not repeat.

Each molecule was assayed against Lysine-specific demethylase 4E (Homo sapiens) (UniProt B2RXH2) (assay: qHTS Assay for Inhibitors of Human Jumonji Domain Containing 2E (JMJD2E)). Details: JMJD2E catalytic domain, FDH-coupled NADH fluorescence (FDH is formaldehyde dehydrogenase); series mostly up to 57.1 µM; activity change, negative = inhibition: at the top concentration.
Note: nearly all actives have a fitted effect of over 50% in size.
Potency is the fitted concentration of half-maximal effect; tags give direction and shape of the fitted curve.
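Throughout, for activity change, negative = inhibition: 0% = wells with enzyme and -100% = buffer wells without enzyme.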

Chain of UniProt B2RXH2 (B2RXH2 whole entry, looked up, the tested form may be a part): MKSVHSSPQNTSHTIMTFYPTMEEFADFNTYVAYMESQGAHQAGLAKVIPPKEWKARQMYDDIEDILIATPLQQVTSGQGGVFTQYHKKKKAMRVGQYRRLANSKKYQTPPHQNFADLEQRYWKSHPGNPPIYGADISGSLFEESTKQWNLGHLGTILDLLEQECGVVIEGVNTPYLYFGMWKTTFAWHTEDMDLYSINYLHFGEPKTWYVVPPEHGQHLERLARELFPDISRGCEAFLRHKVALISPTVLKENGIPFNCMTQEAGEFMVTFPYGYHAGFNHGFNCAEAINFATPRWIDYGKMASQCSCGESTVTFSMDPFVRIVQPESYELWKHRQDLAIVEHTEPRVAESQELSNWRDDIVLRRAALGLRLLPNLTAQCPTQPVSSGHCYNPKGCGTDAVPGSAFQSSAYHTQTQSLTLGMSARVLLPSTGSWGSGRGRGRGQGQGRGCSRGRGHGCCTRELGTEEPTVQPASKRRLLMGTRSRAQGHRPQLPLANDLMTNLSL

SMILES	activity change, negative = inhibition	Potency
CN=CC1=C(O)c2ccccc2C1=O	inactive: 5.12%	–
Cc1nc2ccc(NC(=O)NCCCO)cc2s1	–	inconclusive: 35.5 µM [inhibitor, single point]
CCOc1ccc(C(=O)/C=C/c2ccc(SC)cc2)cc1	–	inconclusive: 39.8 µM [inhibitor, single point]
CCCc1cc(-c2[nH]ncc2-c2ccc3c(c2)OCCCO3)c(O)cc1O	–	inconclusive: 31.6 µM [inhibitor, single point]
CCn1c(=O)c2cc(C(=O)N3CCOCC3)sc2c2ccccc21	–	inconclusive: 25.1 µM [inhibitor, partial curve]
CC(=O)c1c(C)[nH]c(C(=O)Nc2nc(-c3ccc(-c4ccccc4)cc3)cs2)c1C	–	inconclusive: 31.6 µM [inhibitor, partial curve]
O=S(=O)(c1ccc(N2CCC(c3ccc(Cl)cc3)=N2)cc1)N(CCO)CCO	–	inconclusive: 25.1 µM [inhibitor, partial curve]
CC1CCN(c2ncnc3c2cnn3-c2ccccc2)CC1	inactive: 1.26%	–
Cc1cc(NCC2CCCO2)n2c(nc3ccccc32)c1C#N (centres undefined)	–	inconclusive: 35.5 µM [inhibitor, single point]
O=C(c1ccco1)N1CCN(c2ncnc3c2[nH]c2ccc(Br)cc23)CC1	–	inconclusive: 39.8 µM [inhibitor, single point]
O=C(CC1C(=O)NCCN1Cc1ccc(F)cc1)NCCN1CCCc2ccccc21 (centres undefined)	–	inconclusive: 10 µM [inhibitor, partial curve]
Cc1ccc(C)c(NS(=O)(=O)c2cc(C(=O)Nc3ccccc3-c3ccccc3)ccc2Cl)c1	–	inconclusive: 39.8 µM [inhibitor, single point]
COC(=O)CSCC(=O)Nc1cc2c(cc1C(C)=O)OCO2	–	inconclusive: 28.2 µM [inhibitor, partial curve]
C[C@]12CCC(=O)C=C1CCC1C2C(O)C[C@]2(C)C1CC[C@]2(O)C(=O)COC(=O)CCC(=O)O (some centres undefined)	inactive: 0.739%	–
Nc1nc(-c2ccc(-n3nncc3-c3ccco3)cc2)cs1	inactive: -4.22%	–
N#Cc1ccccc1S(=O)(=O)N1CCN(c2cnccn2)CC1	–	inconclusive: 25.1 µM [inhibitor, single point]
CN1CC(c2ccccc2Cl)C2(COc3ccccc3C2=O)C12C(=O)Nc1ccccc12 (centres undefined)	inactive: -6.49%	–
Fc1ccc(-c2n[nH]c(=S)n2-c2ccc3c(c2)OCCO3)cc1	inactive: -51.2%	–
Cc1sc2nc(CN(Cc3cccs3)C(=O)NC3CCCCC3)[nH]c(=O)c2c1C	–	inconclusive: 25.1 µM [inhibitor, single point]
CN1CCc2c(c3c(n2C)CCN(C)C3c2ccc(F)cc2)C1c1ccc(F)cc1 (centres undefined)	–	inconclusive: 28.2 µM [inhibitor, single point]
COc1ccccc1C(=O)Nc1ccc(C2=NNC(=O)CC2C)cc1 (centres undefined)	inactive: -4.03%	–
Cc1cc(C(=O)NCCN2C(=O)S/C(=C\c3cccs3)C2=O)ccc1[N+](=O)[O-]	inactive: -1.97%	–
Cn1ncn2c(=O)c3c(nc12)-c1ccccc1CC31CCCC1	–	inconclusive: 25.1 µM [inhibitor, partial curve]

SMILES	activity change, negative = inhibition	Potency
CCN(Cc1ccccc1)C(=O)C1CCN(C/C(C)=C/c2ccccc2)CC1	–	inconclusive: 39.8 µM [inhibitor, single point]
CC(C)(C)c1nc(NC(=O)Nc2ccccc2)sc1Br	inactive: -17.1%	–
O=C(O)c1ccc(-c2ncc[nH]2)cc1	–	inconclusive: 28.2 µM [inhibitor, partial curve]
C#CCOCCOCCOCCNc1nc(N2CCN(C(=O)Cn3cc(CC(C)O)nn3)CC2)nc(N2CCN(C(=O)[C@H](C)n3cc(CCCN=C(N)N)nn3)CC2)n1 (some centres undefined)	inactive: -26.6%	–
O=C1c2ccc(-c3ccc4c(c3)C(=O)N(CCCO)C4=O)cc2C(=O)N1CCCO	–	inconclusive: 11.2 µM [inhibitor, partial curve]
Cc1ccc2c(c1)sc(=NC(=O)c1cccs1)n2C	–	inconclusive: 35.5 µM [inhibitor, partial curve]
CCC(C)NC(=O)CNC(=O)Cn1c(C)cc2ccccc2c1=O (centres undefined)	–	inconclusive: 22.4 µM [inhibitor, partial curve]
O=C(CN1CC(c2ccccc2)CC1=O)N/N=C/c1cc(Br)ccc1O (centres undefined)	–	inconclusive: 7.94 µM [inhibitor, full curve]
Cc1c(Oc2ccc(C(F)(F)F)cc2[N+](=O)[O-])ccc2c3c(c(=O)oc12)CCC3	–	inconclusive: 31.6 µM [inhibitor, partial curve]
CC(=O)N(/N=C1\Sc2ccccc2C1=O)c1ccccc1C	inactive: 4.81%	–
O=[N+]([O-])c1ccccc1-c1cc(-c2cc(Cl)ccc2O)n[nH]1	inactive: -8.76%	–
COc1ccc(CNc2nc(-c3ccccc3)nn2C(=O)c2ccc([N+](=O)[O-])cc2)cc1	–	inconclusive: 25.1 µM [inhibitor, single point]
O=C(Nc1nc(-c2ccc(S(=O)(=O)N3CCOCC3)cc2)cs1)c1ccccc1	–	inconclusive: 39.8 µM [inhibitor, single point]
CN(C)CCN1C(=O)c2oc3ccc(F)cc3c(=O)c2C1c1ccncc1 (centres undefined)	–	inconclusive: 31.6 µM [inhibitor, single point]
Cc1nc(C(=O)N2CCCC(C(=O)c3ccc(Cl)cc3)C2)cs1 (centres undefined)	inactive: 10.1%	–
CC1Nc2nc(N(C)C)[nH]c(=O)c2NC1C (centres undefined)	–	inconclusive: 28.2 µM [inhibitor, partial curve]
O=C(NC1CCCCC1)C(c1ccncc1)N(Cc1ccc2c(c1)OCO2)C(=O)C(F)(F)F (centres undefined)	–	inconclusive: 39.8 µM [inhibitor, single point]
Cc1cccc(CN2C(=O)N/C(=C/c3cc(C)n(-c4ccccn4)c3C)C2=O)c1	–	inconclusive: 28.2 µM [inhibitor, partial curve]
COc1ccccc1C1Nc2cccc3cccc(c23)N1	–	inconclusive: 28.2 µM [inhibitor, single point]
O=C1Nc2ccc([N+](=O)[O-])cc2OC1CCN1CCCC1 (centres undefined)	inactive: -10.9%	–
Cn1c(SCC(=O)c2ccc3c(c2)OCCO3)nnc1C1CC1	inactive: -1.65%	–
Nc1ccccc1Nc1cc(-c2ccccc2)nn1-c1ccccc1	–	inconclusive: 31.6 µM [inhibitor, partial curve]
Cc1ccc2cc3cc(C(=O)NCCCN4CCCCCC4)oc3nc2c1	–	inconclusive: 14.1 µM [inhibitor, partial curve]

SMILES	activity change, negative = inhibition	Potency
O=C1CSC(c2ccccc2Cl)N1 (centres undefined)	inactive: 2.85%	–
Cc1c(-c2ccc(F)cc2)nc(N)c(C#N)c1-c1cccnc1	–	inconclusive: 35.5 µM [inhibitor, single point]
COC(=O)c1c(NC(=O)c2c(-c3ccccc3Cl)noc2C)sc2c1CCC2	–	inconclusive: 31.6 µM [inhibitor, partial curve]
Cc1csc2ncc(C(=O)Nc3ccc(C(F)(F)F)cc3)c(=O)n12	–	inconclusive: 4.47 µM [inhibitor, single point]
CCOC1(C(F)(F)F)NC(=O)N(Cc2ccc(OC)cc2)C1=O (centres undefined)	–	inconclusive: 39.8 µM [inhibitor, single point]
CCOC(=O)CSc1nc(-c2ccncc2)ccc1C#N	–	inconclusive: 28.2 µM [inhibitor, partial curve]
O=C(OCCN1CCCCC1)c1cc2ccccc2o1	–	inconclusive: 31.6 µM [inhibitor, single point]
COc1ccc(C(=O)C2CCCN(C(=O)c3cc4nc(C)cc(C)n4n3)C2)cc1F (centres undefined)	–	inconclusive: 25.1 µM [inhibitor, single point]
Cc1onc(-c2ccccc2)c1C(=O)N/N=C(\N)COc1ccc(Cl)cc1	–	inconclusive: 28.2 µM [inhibitor, single point]
O=C(Nc1ccc(F)cc1)c1oc2ccccc2c1NC(=O)C1CCCC1	–	inconclusive: 35.5 µM [inhibitor, single point]
Cc1occc1C(=O)N/N=C/c1sc(N2CCOCC2)nc1-c1ccccc1	–	inconclusive: 25.1 µM [inhibitor, single point]
CNC(=O)Nc1ccc2snnc2c1	–	inconclusive: 28.2 µM [inhibitor, partial curve]
Clc1ccc(-c2csc(N/N=C/c3ccc4c(c3)OCO4)n2)cc1	–	inconclusive: 22.4 µM [inhibitor, single point]
Cc1ccc(C(=O)N[C@H](C(=O)OCc2cc(=O)oc3cc(C)ccc23)C(C)C)cc1	inactive: 4.56%	–
CCCCNC(=O)N1CCN(Cc2cccc(F)c2)CC1	inactive: 7.87%	–
CCC(=O)Nc1ccc(-c2nc3ccccc3c(=O)o2)cc1	–	inconclusive: 3.98 µM [inhibitor, single point]
Cc1nc(NCCN)c(C#N)c2c1COC(C)(C)C2	–	inconclusive: 28.2 µM [inhibitor, partial curve]
Cc1ccc(-c2csc3nc4cc(C(N)=O)ccc4c(=O)n23)cc1	–	inconclusive: 25.1 µM [inhibitor, partial curve]
Cc1c(-c2ccc(Cl)cc2)oc(=O)c2c(N)n(-c3ccccc3)nc12	–	inconclusive: 35.5 µM [inhibitor, single point]
O=C(O)c1ccc(CSc2nnc(COc3ccc(Cl)cc3Cl)o2)cc1	inactive: 6.68%	–
O=C(CCn1nnc2ccccc21)Nc1nnc(COc2ccccc2F)s1	inactive: 2.93%	–
COc1ccc(CCN(C)CCCOc2ccc(S(=O)(=O)c3[nH]c4ccccc4c3C(C)C)cc2)cc1OC	–	active: 25.1 µM
CCN(CC)CCC(c1ccc(N(C)C)cc1)c1c(OC)cc(OC)c2ccc(=O)oc12 (centres undefined)	–	inconclusive: 31.6 µM [inhibitor, single point]
